# The list shows a part of the results.
# T1: UNK ZnF1-6 (called full-length) (human, UniProt Q9C0B0 30-357)
# T1 sequence: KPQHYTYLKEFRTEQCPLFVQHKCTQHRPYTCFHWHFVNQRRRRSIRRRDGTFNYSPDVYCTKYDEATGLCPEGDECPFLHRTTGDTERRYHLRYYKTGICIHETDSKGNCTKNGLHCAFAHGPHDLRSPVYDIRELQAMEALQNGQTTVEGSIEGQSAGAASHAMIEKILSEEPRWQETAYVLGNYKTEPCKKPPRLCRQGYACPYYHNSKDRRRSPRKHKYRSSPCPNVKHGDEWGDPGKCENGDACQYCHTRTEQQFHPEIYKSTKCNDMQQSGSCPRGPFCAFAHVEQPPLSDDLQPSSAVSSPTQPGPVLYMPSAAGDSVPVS
# B1: chr14:74902662:74902763:+|3pUTR|ENSG00000119689|msi1|total|mutant (ssRNA)
# RNA: GGGAGUUCUACAGUCCGACGAUCCCCCUGGGGACCAUGUGAUUAAGUUCCUAUCUUUUGAAAGUUUGUUCUGCAGAGACUUCCCGGAGGAUGCUGUGCCUCCCAAGCUCAGAGCAGCCUCUGUCCUGGCUGUGCACAUUCUCCCAACAGAGGAUUGAGCAUCA
# B2: chr1:203741760:203741861:+|3pUTR|ENSG00000058668|msi1|total|mutant (ssRNA)
# RNA: GGGAGUUCUACAGUCCGACGAUCAUUUUGGUUUUGUAAAACGUACAUGCUUCAAUAAUUCUUUUUUGUGUCUUAAAUACUCACCGGGGAAAAAAACAGCUCACCCAAGGUGUCCGGUUUCACAUAUAUAUUCAUCAACUAUUUCAACAGAGGAUUGAGCAUCA
# B3: chr16:57253408:57253449:+|3pUTR|ENSG00000102931|msi1_unk|total|mutant (ssRNA)
# RNA: GGGAGUUCUACAGUCCGACGAUCUGUGUGGCCGAUUACUUAUCAGAAAACAUAUAUGUCAUCUCCCGAACGAAGAAAAAGCACCGCCGUUCAAUUCCCAGUGUGUCCCUUUGAUUUUUUUUUUUUAACCGUAAAAAUAAGAAUCAACAGAGGAUUGAGCAUCA
# B4: chr11:59152587:59152688:+|CDS|ENSG00000166801|msi1|FALSE|unique (ssRNA)
# RNA: GGGAGUUCUACAGUCCGACGAUCAUUGAAAACUUCAAGAAAAAAAUGAAAGUAAAAAAUGGGGAAACAUUAUUUGAAUUGCAUAGAACAACGUUUGGGAAAGUAACAAAAAAUUCUUCUUCGAUUAAAGUAGUGAAACUUCUUCAACAGAGGAUUGAGCAUCA
# B5: chr1:6224442:6224573:-|3pUTR|ENSG00000116237|msi1_unk|total|mutant (ssRNA)
# RNA: GGGAGUUCUACAGUCCGACGAUCCUAUACAAUUUUAAAAAUACUUCCUCACCGGAUGCUUUGGCCCUUCAUCUAUUUAAUCACCGCUACAUACCUAUUUUUUAUAAGCCGCAGUACACAUUCAAAGGGGUAUUCCCCGCUCAACAACAGAGGAUUGAGCAUCA
# B6: chr15:63775065:63775180:-|CDS|ENSG00000103657|unk|FALSE|unique (ssRNA)
# RNA: GGGAGUUCUACAGUCCGACGAUCUGGUUCAGCAGAUGUCCAUUCUGUUAGUGAACGCCCCCGGUCAAGCACUGAUGCACUUAUAGAAAUGGGUGUUCGAACUGGUCUAAGUUUAUUAUUUGCGCUUCUAAGACAAAGUUGGAUCAACAGAGGAUUGAGCAUCA
# B7: chr1:17407970:17408071:-|3pUTR|ENSG00000179051|msi1|FALSE|unique (ssRNA)
# RNA: GGGAGUUCUACAGUCCGACGAUCGGGUACCGUUCUGCUGACCCAGCUCCCUUUAGUCACGUUUGCUUGGCUCUGGUACCAAAUAGUUGGGAUUACCGAAGAGUCCCCUUCCUUGCGUGUCAGCACGGAUGCUGUGACUGCCACCAACAGAGGAUUGAGCAUCA
# B8: ENSG00000179431:stop:overlap|stop_codon|ENSG00000179431|stop_codon|NA|stop_codon (ssRNA)
# RNA: GGGAGUUCUACAGUCCGACGAUCACUUCCUCGCCAAGCACAUUUUGCACUGUAAGGCCAAGUACGGCCGCCGGUCUGGGACUUAGUGUCACCGGGAGGAAAAGAGAGAGAUCUGGGGCUGGGGUAUGGAUGAUGGGGGGAAGGCAACAGAGGAUUGAGCAUCA
# B9: ENSG00000142192:stop:overlap|stop_codon|ENSG00000142192|stop_codon|NA|stop_codon (ssRNA)
# RNA: GGGAGUUCUACAGUCCGACGAUCAGAUGCAGCAGAACGGCUACGAAAAUCCAACCUACAAGUUCUUUGAGCAGAUGCAGAACUAGACCCCCGCCACAGCAGCCUCUGAAGUUGGACAGCAAAACCAUUGCUUCACUACCCAUCCAACAGAGGAUUGAGCAUCA
# B10: chr2:216675367:216675485:-|3pUTR|ENSG00000115461|msi1|FALSE|unique (ssRNA)
# RNA: GGGAGUUCUACAGUCCGACGAUCGCCAGGCAGAGGCCAGCCCUCCGUGGUGCACACAGCACGCGCCUCAGUCCAUCCCAUUUUAGUCUUUAAACCCUCAGGAAGUCACAGUCUCCGGACACCACACCACAUGAGCCCAACAGGCAACAGAGGAUUGAGCAUCA
# B11: ENSG00000198589:be:win_9151|3pUTR|ENSG00000198589|bound_else_gene|NA|bound_elsewhere_windowed (ssRNA)
# RNA: GGGAGUUCUACAGUCCGACGAUCAUUGUGUGGUUAGCACAAGGAAUCUAAUUUAUAGCAAGUGUGAAAUAGUUACCAUUUUUUCCUGAUCUGUCAUCUUCAUAGCACAACAAAACGAAAUGAUGGAAAUGCUCUUGAGCUCACCAACAGAGGAUUGAGCAUCA
# B12: chr1:109011400:109011505:-|CDS|ENSG00000085433|unk|total|mutant (ssRNA)
# RNA: GGGAGUUCUACAGUCCGACGAUCGUCAUGGUUGCAGAAUUCAUCCCUGCUGACCGGAAGCUAAGUGAAGCUGGUUUUAAGGCCCGUAACAAUCGUUUAUUUCAGCUUGUAAUGAAAGGCCUGCUUUAUGAAUGCUGUGCCGAACAACAGAGGAUUGAGCAUCA
# B13: chr5:16663783:16663884:-|3pUTR|ENSG00000145555|msi1|total|mutant (ssRNA)
# RNA: GGGAGUUCUACAGUCCGACGAUCUGAGGAUACAAAAUUCACAGAUGCUCAAGUCCCUGCUAUACAGUGGUAUAAUAUUUGCACCGAACCUGCACACAUCUUUCCUUACCCUUUAAAUCAUCUCCAGGUUACAGAUACCCCGCACAACAGAGGAUUGAGCAUCA
# B14: chrX:152133309:152134510:-|three_prime_utr|ENSG00000124260|control|control|control (ssRNA)
# RNA: GGGAGUUCUACAGUCCGACGAUCUGAUUUUACUCAUAUGUGGAAUCUAAAAAAAAAAAAAAAAAAAGUUGGUAUCAUGGAAGUAGAGAGUAGAGCAGUAGUUACAUUACAAUUAAAUAGGAGGAAUAAGUUCUAGUGUUCUAUCAACAGAGGAUUGAGCAUCA
# B15: chr20:3864521:3864622:+|CDS|ENSG00000088888|msi1|total|mutant (ssRNA)
# RNA: GGGAGUUCUACAGUCCGACGAUCGCCCUGAAAGUGCCUGCCAACCCAGCAUCUGUCAGCACAGUGCCCUCCAAGUUGCCAACCCGCUCAAAGCCCCCUGGUGCAGUGCCUUCUAAUGCGCUCACCAAUCCAGCACCAUCCAAACAACAGAGGAUUGAGCAUCA
# B16: ENSG00000115216:stop:overlap|stop_codon|ENSG00000115216|stop_codon|NA|stop_codon (ssRNA)
# RNA: GGGAGUUCUACAGUCCGACGAUCACAAGUUCAAUUUUGCCAGGAACAGUACCCUCAACUCAGCCGCUGUCACCGUCUCCUCUUAGAGCUCACUCGGGCCAGGCCCUGAUCUGCGCUGUGGCUGUCCCUGGACGUGCUGCAGCCCAACAGAGGAUUGAGCAUCA
# B17: ENSG00000132341:stop:overlap|stop_codon|ENSG00000132341|stop_codon|NA|stop_codon (ssRNA)
# RNA: GGGAGUUCUACAGUCCGACGAUCUCUCGCCCCACCAGAAGUUGUCAUGGACCCAGCUUUGGCAGCACAGUAUGAGCACGACUUAGAGGUUGCUCAGACAACUGCUCUCCCGGAUGAGGAUGAUGACCUGUGAGAAUGAAGCUGCAACAGAGGAUUGAGCAUCA
# B18: chr2:120221238:120221343:-|3pUTR|ENSG00000226479|unk|total|mutant (ssRNA)
# RNA: GGGAGUUCUACAGUCCGACGAUCAUAUGUUGAAUUCCCGUUCUCUGCAUUACCAUUAUUACGUUAAAGUAUUUUUUAAAGCUCCGGUGUGAAGAUAUGUGUCUAUUGCAGAUGUCCUUGAAAACUGCAUAAAACAGUAUGUGCCAACAGAGGAUUGAGCAUCA
# B19: chr19:58083837:58084684:-|three_prime_utr|ENSG00000121413|control|control|control (ssRNA)
# RNA: GGGAGUUCUACAGUCCGACGAUCGCUCGCAUCCGAGGGGAGCCGCCGGAUGUGGAAGAAGACUCGGCUUUCCUGCAGCCAUUUAGUGCCGCCCCAUGCUAGGUUAUUUGACAUUGUGCAGUGUAGAGUUGCCUUAAAGUGCGUCAACAGAGGAUUGAGCAUCA
# B20: chr1:93346344:93346492:+|5pUTR|ENSG00000117505|unk|total|mutant (ssRNA)
# RNA: GGGAGUUCUACAGUCCGACGAUCGCCGCUCAAAUUUCCGGACCACCGCGCUUUCCCCUCCUCAGCCUGGGCUGUGCUCUCUCCCGAAUCCUCGGGCCCCCACUUUCUUCCCAAACUCAUCCUAAAUCUCUCACACACGCGAGUCAACAGAGGAUUGAGCAUCA
# B21: ENSG00000136451:be:win_501|CDS|ENSG00000136451|bound_else_gene|NA|bound_elsewhere_windowed (ssRNA)
# RNA: GGGAGUUCUACAGUCCGACGAUCUAAGCCUGUCAAGAAGAACCAUGCUUGUGAGAUGUGUGGGAAGGCCUUCCGAGAUGUGUACCAUCUCAAUCGACACAAGCUCUCCCAUUCAGAUGAGAAACCCUUUGAGUGUCCUAUUUGCAACAGAGGAUUGAGCAUCA
# B22: chr17:63354981:63355093:+|CDS|ENSG00000170921|unk|total|mutant (ssRNA)
# RNA: GGGAGUUCUACAGUCCGACGAUCCAGUCAAGGGUCCUAUCUAUAUCUGAAACUUACAUUUGACCUCACCGAGAAAGGCUAUCCCGUGUUAAAGAGCUCCCGCUACAAAGCCGUUCCUGUUUCGCUCUCAGAGGUUUAUUUACUCAACAGAGGAUUGAGCAUCA
# Molecular target: T1, UNK ZnF1-6 (called full-length)
# Experiment: nsRBNS (natural sequence RNA bind-n-seq); RBNS binding buffer (assumed for nsRBNS): 25 mM Tris pH 7.5, 150 mM KCl, 3 mM MgCl2, 0.01% Triton X-100, 500 ug/ml BSA, 20 U/ml SUPERase-In, 4 C; UNK is unkempt and MSI1 is Musashi-1; names of the RNAs are library labels; protein concentration not given here; high values mean tight binding
row,Binder,binding signal
1,B1,0.463 enrichment R
2,B2,0.74 enrichment R
3,B3,0.356 enrichment R
4,B4,0.453 enrichment R
5,B5,3.91 enrichment R
6,B6,0.696 enrichment R
7,B7,2 enrichment R
8,B8,0.579 enrichment R
9,B9,0.618 enrichment R
10,B10,2.44 enrichment R
11,B11,4.03 enrichment R
12,B12,0.748 enrichment R
13,B13,0.511 enrichment R
14,B14,2.99 enrichment R
15,B15,0.713 enrichment R
16,B16,1.02 enrichment R
17,B17,0.768 enrichment R
18,B18,0.71 enrichment R
19,B19,0.832 enrichment R
20,B20,1.2 enrichment R
21,B21,0.49 enrichment R
22,B22,0.664 enrichment R

# — PMC12136788
